From patent US11639368B2, “Method for preventing and treating hyperpermeability” (Apeptico Forschung UND E[…], priority 2009, dated 2023)

Test system: human endothelial cells of the lungs
Test: Toxin-induced hyperpermeability, transendothelial electric resistance (ECIS), endothelial cells
Type: cell-based
Conditions: 125 ng/ml of pneumolysin, 50 μg/ml of peptide

SMILES: C[C@@H]1NC(=O)CNC(=O)[C@H](CCC(=O)O)NC(=O)[C@@H]2CCCN2C(=O)[C@H]([C@@H](C)O)NC(=O)[C@H](CCC(=O)O)NC(=O)[C@H](CCCNC(=N)N)NC(=O)[C@H](CCC(N)=O)NC(=O)CNC(=O)[C@@H](N)CSSC[C@@H](C(=O)O)NC(=O)[C@H](Cc2ccc(O)cc2)NC(=O)[C@H](Cc2c[nH]c3ccccc23)NC(=O)[C@@H]2CCCN2C(=O)[C@H](CCCCN)NC(=O)[C@H](C)NC(=O)[C@H](CCC(=O)O)NC1=O [peptide SEQ ID No. 1, CGQRETPEGAEAKPWYC]
- hyperpermeability caused by the toxin pneumolysin (electric resistance): inhibited
